# The supplement of paper PMC10126150
# Sequences with one replicate were seen in a single cluster, so their values are uncertain.
# System: ATP
# Assay: switch fluorescence ratio, 500 uM ATP over buffer (Cy3 cluster intensity, sum of 5 cycles each) (fold (ratio)); higher = stronger signal-on switching upon ATP binding; sequences stand for … in TCGTCGGCAGCGTCAGATGTGTATAAGAGACAGTTTTTTTTTTTTTTTTTTTTTTTTT…TC
# Settings: aptamer strand: ATP DNA aptamer (quencher-CACCTGGGGGAGTATTGCGGAGGAAGG + anchor), 100 nM annealed; ATP concentration: 500 uM; one replicate
# Procedure, shortened: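 Clusters with intensities outside 100-1000 RFU were excluded. The remaining Cy3-labelled switching-strand clusters on a modified Illumina MiSeq flow-cell had been annealed to 100 nM quencher-labelled ATP aptamer and imaged in selection buffer, then after 15 min with 500 uM ATP at 22 °C, for five cycles separated by NaOH stripping and re-annealing. The fluorescence ratio, averaged per switch-domain sequence, is each cluster's summed target-cycle Cy3 intensity over its summed buffer-cycle Cy3 intensity.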
# 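Also: ATP exposure 15 min at 22 °C before imaging.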
row,Sequence,switch fluorescence ratio
1,GATCTACTAC,1.06
2,GATCTCACGG,0.989
3,GATCTCCCGT,1.03
4,GATCTCTAGT,0.999
5,GATCTCTCTA,1.02
6,GATCTGCGGC,1.08
7,GATCTGTCCT,1.01
8,GATCTGTGCT,0.969
9,GATCTTTATC,1.01
10,GATCTTTCGG,0.936
11,GATGAAGCTT,1.01
12,GATGAATTTG,1.03
13,GATGAGAAA,1.07
14,GATGAGGACC,0.984
15,GATGAGTCGT,1.01
16,GATGAGTTTT,1.02
17,GATGATCCGT,1
18,GATGATTCCT,1.07
19,GATGCAAGTA,1.09
20,GATGCAGAGC,1.02
21,GATGCGGTCG,1.04
22,GATGCTTCCA,0.981
23,GATGCTTGTT,1.03
24,GATGGAATTC,1.07
25,GATGGCATTT,0.969
26,GATGGCCGCT,0.993

row,Sequence,switch fluorescence ratio
1,GATGGGTTGT,0.994
2,GATGGTGAAG,0.968
3,GATGGTTAAA,0.99
4,GATGTAAATC,0.963
5,GATGTACCTA,1.05
6,GATGTACTGG,1.03
7,GATGTCTGTG,0.964
8,GATGTGCCGG,0.979
9,GATGTGCTAC,1.09
10,GATGTGGACG,1
11,GATGTGGCGG,1.01
12,GATGTTGGGG,1.01
13,GATTAACAGG,1.07
14,GATTAACCTC,1.04
15,GATTAATAAC,0.996
16,GATTAATTCA,1.02
17,GATTACCATG,1.01
18,GATTACCTGA,1.08
19,GATTACGATG,0.992
20,GATTAGACCC,0.973
21,GATTAGGTAG,0.991
22,GATTCCACGA,1
23,GATTCCCGA,1.02
24,GATTCCCTGC,1.05
25,GATTCCGTGA,1.27
26,GATTCTCATC,0.955

row,Sequence,switch fluorescence ratio
1,GATTCTTAG,0.978
2,GATTGAACGC,1.01
3,GATTGAATTA,0.973
4,GATTGAGATA,1.02
5,GATTGATGTA,0.967
6,GATTGCATTG,0.958
7,GATTGCGAGT,0.966
8,GATTGCGGCA,0.972
9,GATTGCGGCC,1.08
10,GATTGGAAAT,1.05
11,GATTGGAATG,0.994
12,GATTGTAATG,0.977
13,GATTGTACTG,1.02
14,GATTGTAGA,0.986
15,GATTGTCCTG,1.04
16,GATTGTCGGA,0.995
17,GATTGTGTTG,0.983
18,GATTGTTATC,1
19,GATTTAAGG,0.969
20,GATTTACCGT,1.02
21,GATTTAGATC,0.988
22,GATTTCAGCG,0.976
23,GATTTGAATA,1.01
24,GATTTGACAT,0.991
25,GATTTTACG,1.01
26,GCAAAAACAT,1.03

row,Sequence,switch fluorescence ratio
1,GCAAAAGGCA,1.06
2,GCAAACCGAT,1.1
3,GCAAACGAGG,1.13
4,GCAAAGTGAC,1.08
5,GCAAATCTTG,0.994
6,GCAAATGTGG,1.01
7,GCAACAAATG,1.04
8,GCAACCTTTC,2.93
9,GCAACGCCTG,0.969
10,GCAAGAAACT,1.03
11,GCAAGCCGGT,1.05
12,GCAAGCCTGG,1.01
13,GCAAGCGGTA,0.943
14,GCAAGCGTGT,1.03
15,GCAAGGATGT,0.988
16,GCAAGGGATA,1.03
17,GCAAGGGGG,1.04
18,GCAAGTCGAC,1.01
19,GCAAGTCGAT,1.05
20,GCAATAAAGT,0.99
21,GCAATAGGCA,1.08
22,GCAATATCAG,1.19
23,GCAATCACC,2.46
24,GCAATCGTAC,2.14
25,GCAATCTGTG,1.24
26,GCAATGTGC,1.23

row,Sequence,switch fluorescence ratio
1,GCAATTAAGA,1.07
2,GCAATTAGTG,1.04
3,GCAATTATTT,1.05
4,GCAATTGAA,1.02
5,GCACAAAAGA,0.954
6,GCACAATAAG,1.05
7,GCACAGATCC,1
8,GCACAGCCGG,1.01
9,GCACATCAGG,1.16
10,GCACATTTGG,1
11,GCACCGACGT,1.57
12,GCACCGCAGC,2.61
13,GCACCGGGG,1.03
14,GCACCGGTTA,0.978
15,GCACCTAGAT,1.04
16,GCACCTGTTC,1.07
17,GCACCTTCAT,1.48
18,GCACCTTCGC,1.76
19,GCACGAACTT,1.33
20,GCACGAGGGT,0.972
21,GCACGATTGA,1.06
22,GCACGCAATG,2.65
23,GCACGCGGTT,1.01
24,GCACTACATT,1.06
25,GCACTACTCG,2.47
26,GCACTACTGG,1.08

row,Sequence,switch fluorescence ratio
1,GCACTCACC,1.6
2,GCACTGGCGA,1.08
3,GCACTGTGCG,1.03
4,GCACTTCCTG,1.01
5,GCAGAACCCT,1.36
6,GCAGAACTGG,1.03
7,GCAGAAGAGG,1
8,GCAGATTATT,0.989
9,GCAGCACAGC,1.14
10,GCAGCATTA,2.37
11,GCAGCCGCTA,1.21
12,GCAGGAGTGT,0.951
13,GCAGGATGG,1.01
14,GCAGGCCTGG,0.959
15,GCAGGGG,1.2
16,GCAGGGGAG,0.989
17,GCAGGGGTGC,1.01
18,GCAGTATT,1.41
19,GCAGTATTCT,1.03
20,GCAGTGATTG,1.04
21,GCAGTGCAGT,0.958
22,GCAGTGTAGC,0.989
23,GCAGTTAGCT,0.999
24,GCAGTTCGCT,0.976
25,GCAGTTTCAC,1.01
26,GCAGTTTTCC,1.05

row,Sequence,switch fluorescence ratio
1,GCATAAGCTT,1.03
2,GCATAATCCA,1.09
3,GCATACAGGG,1.08
4,GCATACATCC,1.47
5,GCATACCAAG,1.01
6,GCATACGTCA,1.18
7,GCATACTTGC,0.998
8,GCATAGGCAT,1.02
9,GCATAGGGAG,1.04
10,GCATAGGGGA,1.07
11,GCATATCG,0.996
12,GCATCAAAAT,0.923
13,GCATCACTAT,1.04
14,GCATCACTTA,1.09
15,GCATCGAGAG,0.986
16,GCATCTTGCC,0.993
17,GCATGACGAT,1.04
18,GCATGAGAAG,1.02
19,GCATGCTAA,1.02
20,GCATGCTCTC,1.18
21,GCATGGGATG,1.07
22,GCATGGGCTT,0.989
23,GCATGTGCCG,0.874
24,GCATGTGGGG,0.99
25,GCATTAGATA,1.03
26,GCATTATCAA,0.971

row,Sequence,switch fluorescence ratio
1,GCATTCAGAA,0.976
2,GCATTGCTCG,1.04
3,GCATTGTTGT,0.957
4,GCATTTTTTA,0.967
5,GCCAAAACAA,0.99
6,GCCAAACGTG,0.981
7,GCCAAATAGG,1.03
8,GCCAACCTGA,1.11
9,GCCAACTGGG,1.02
10,GCCAAGGGG,1.03
11,GCCACAATCG,1.07
12,GCCACGGTTT,1.01
13,GCCACTAGGA,1.03
14,GCCACTGACA,1.15
15,GCCAGCCGGG,1.15
16,GCCAGCGCAG,0.974
17,GCCAGGGCCT,1.01
18,GCCAGGTGAG,4.66
19,GCCAGTAGTT,0.965
